In PubChem BioAssay AID1956 (SRMLSC, 2009) one finds fold increase and viability data, which are given here for 59 molecules.

Usually viability stands for a read-out of living cells in per cent, often relative to untreated cells.

SMILES strings stand for the structures. Some of the results follow. Further columns of the screen follow, without active or inactive calls.

The assay is described as follows: compounds boosting herpes simplex virus growth – fold increase, host cell viability (AID 1956). Also: tested in PC3 cells. The following applies: HSV replication augmentation in cells; fold increase: measured here: primary screen fold increase 10 uM, at 10 µM, stronger effect = higher value; viability: measured here: host cell viability series, at 25 µM, stronger effect = lower value.
Molecule `CCOC(=O)CC1C(=O)NCCN1c1nc2ccc(C)cn2c(=O)c1/C=C1\SC(=S)N(C(C)CC)C1=O` (configuration not stated) gave a fold increase of 4.22.
On to `CCOc1cccc(/C=C2/NC(=O)N(CC(=O)Nc3cccc(C)c3)C2=O)c1O`, for which the fold increase worked out at 1.8 and the viability was 102%.
For `CCN(CC)c1nc(C)c(C(=S)Nc2cc([N+](=O)[O-])ccc2Cl)s1`, in that order: 1.55 and 97.8%.
With `CCOc1ccc(NC(=O)C(C)Sc2nnc(C)n2C)cc1` (configuration not stated), the fold increase was 1.57 and the viability came to 96%.
With `O=C(c1ccccc1)c1c2c(cc3sc4ccccc4[n+]13)-c1cccc3cccc-2c13`, the fold increase was found to be 1.52 and the viability turned out to be 35.5%.
The matching figures for `CCOC(=O)c1c(C)[nH]c(C(=O)/C(C#N)=C/c2ccc(OC(F)F)c(OC)c2)c1C`: 1.68 and 89.7%.
For `Cc1ccccc1Nc1cccc2nonc12`, the fold increase is 1.49.
As to `O=[n+]1c2c(n([O-])c3cc(F)c(N4CCCC4)cc31)CCCC2`, the fold increase was determined as 2.06 and the viability came out at 104%.
On to `COc1cc(/C=C2\SC(=S)N(C(Cc3ccccc3)C(=O)O)C2=O)ccc1O` (configuration not stated), for which the fold increase turned out to be 4.27 and the viability amounted to 92.7%.
Take `CCOC(=O)C1=C(C)n2c(s/c(=C/c3cccc([N+](=O)[O-])c3)c2=O)=NC1c1ccc(O)c(OC)c1` (configuration not stated): the fold increase was determined as 1.96 and the viability is 48.6%.
For `COc1ccc(N=C2NC(=O)S/C2=C\c2ccc(N(C)C)cc2)cc1`, in that order: 2.48 and 91.6%.
`CCCCc1ccc(-c2csc(/C(C#N)=C\c3ccco3)n2)cc1` yielded a fold increase of 1.45.
In the case of `CCN(CCO)c1nc(SC)nc2c1sc1nc(-c3ccco3)c3c(c12)CCC3`, the fold increase is 1.35 and the viability amounted to 97.2%.
The matching figures for `O=C(O)/C(=C\c1ccc(Br)cc1)c1ccc(S(=O)(=O)N2CCCCC2)s1`: 1.4 and 92.2%.
The matching figures for `COc1ccccc1-n1cc(C(=O)c2cc(Cl)ccc2O)cc(C#N)c1=O`: 1.46 and 96.4%.
For the molecule `CS(=O)(=O)Nc1ccc(C2=NN(S(C)(=O)=O)C(c3ccc4c(c3)OCO4)C2)cc1` (configuration not stated), the fold increase worked out at 1.83 and the viability amounted to 96.1%.
`Cc1sc2ncnc(N3CCCCC3)c2c1C`: the fold increase stood at 1.37 and the viability worked out at 83%.
For `N#Cc1c(C(F)(F)F)cc(-c2cccs2)nc1SCc1ccc(Cl)nc1`, in that order: 1.42 and 87.9%.
For `CCOc1cc(/C=C2/SC(=S)N(C)C2=O)ccc1Oc1ccc([N+](=O)[O-])cc1[N+](=O)[O-]`, in that order: 1.98 and 80.6%.
Molecule `Cc1c(C(=O)C(=O)N2CC=C(c3ccccc3)CC2)c2ccccc2n1C` had a fold increase of 1.78.
As to `CC(=Nc1ccccc1C)C1=C(O)CSC1=O`, the fold increase amounted to 1.43 and the viability came out at 94.6%.
The matching figures for `CC(=O)c1cccc(N=Nc2c(-c3ccccc3)[nH]n(-c3ccccc3)c2=O)c1`: 1.56 and 82.1%.
As for `CCOC(=O)c1c(NC(=O)CN2CCCc3ccccc32)sc(C)c1CC`, the fold increase was determined as 1.89.
Consider `CC(C)Cc1cc(C(=O)N2CCC(N3CCC(C(=O)NC4CC4)CC3)CC2)n[nH]1`, for which the fold increase was determined as 1.47 and the viability came out at 106%.
For `Cc1ccc(S(=O)(=O)N2CCCCC2C(=O)N2CCN(c3ccccc3F)CC2)cc1` (configuration not stated), in that order: 1.38 and 93.7%.
As to `Cc1ccc(N=C2NC(=O)C(CC(=O)O)S2)cc1` (configuration not stated), the fold increase stood at 1.32.
On to `COc1cccc(C(=O)/C=C/Nc2cccc(O)c2)c1`, for which the fold increase was found to be 1.35 and the viability worked out at 95%.
For `Cc1sc2nc(COC(=O)c3cccc(S(=O)(=O)N(C)c4ccccc4)c3)[nH]c(=O)c2c1C`, in that order: 1.34 and 98.2%.
Regarding `O=C1c2ccccc2-c2onc3ccc(Oc4ccccc4)c1c23`, the fold increase turned out to be 5.82 and the viability turned out to be 50.8%.
Regarding `COc1ccc(C2C=C(c3ccc(Br)cc3)Nc3nc(N4C(=O)CCC4=O)nn32)cc1` (configuration not stated), the fold increase amounted to 3.14 and the viability was determined as 94.2%.
For `O=c1c(Cl)c2oc3ccccc3nc-2c2ccccc12`, in that order: 1.67 and 99.2%.
In the case of `Cc1c(C2Nc3ccccc3NC3=C2C(=O)CC(C)(C)C3)cnn1C` (configuration not stated), the fold increase was 1.22 and the viability was determined as 98.5%.
The molecule `CN(CC(=O)Nc1ccccc1Oc1ccccc1)Cc1ccccc1F` came in with a fold increase of 1.35.
In the case of `COc1ccc(-c2cc(-c3ccco3)[nH]c(=O)c2C#N)cc1`, the fold increase came out at 1.69 and the viability is 97.8%.
The matching figures for `CCN1/C(=C/c2ccc3cccc(C)c3[n+]2CC)Sc2ccccc21`: 5.74 and 20.3%.
For the molecule `OCCCc1nc2n(n1)C(c1cccs1)C=C(c1ccc(Br)cc1)N2` (configuration not stated), the fold increase turned out to be 5.13 and the viability was 79.1%.
Regarding `O=C(O)c1cc(-c2ccco2)nc2cc3ccccc3cc12`, the fold increase stood at 1.35 and the viability stood at 98.6%.
For `CC1CCc2nn(CC(=O)NCCN3CCCCC3C)cc2C1` (configuration not stated), in that order: 1.36 and 100%.
The matching figures for `CC(C)CN=Cc1c(O)c([N+](=O)[O-])cc2oc3c(c12)CCCC3`: 3.13 and 102%.
For `COc1ccc(N=C2NC(=O)/C(=C/c3ccc(O)c(OC)c3)S2)cc1`, in that order: 1.85 and 77.5%.
As for `CCOc1cc(C=C(C#N)C#N)ccc1Oc1ccc([N+](=O)[O-])cn1`, the fold increase is 1.33 and the viability came out at 87.3%.
The matching figures for `Cn1c(=O)oc2cc(S(=O)(=O)NCc3ccc(C(=O)O)cc3)ccc21`: 1.72 and 104%.
As for `CCc1ccc(NC(=O)COc2ccc(/C=C(/C#N)c3nc4ccccc4[nH]3)cc2OC)cc1`, the fold increase worked out at 1.6 and the viability was determined as 43%.
On to `O=C(N=C1SCC(=O)N1c1ccccc1)c1ccco1`, for which the fold increase came to 1.18.
In the case of `CCOC(=O)C1=C(C)Nc2sc(C(=O)c3ccc(Br)cc3)c(N)c2C1c1ccc(C(=O)OC)cc1` (configuration not stated), the fold increase is 1.33 and the viability came to 90.9%.
For `O=C(NCCCn1ccnc1)c1ccc(Cl)cc1`, in that order: 1.33 and 102%.
The matching figures for `O=C(CNC(=O)C(c1ccccc1)c1ccccc1)N/N=C/c1cccnc1`: 1.34 and 90.2%.
`O=C(CSc1cccc(C(F)(F)F)c1)NC(=O)c1ccccc1` returned a fold increase of 1.32.
Consider `COC(=O)N/N=C/c1cc(Br)ccc1O`, for which the fold increase amounted to 1.45 and the viability is 97.6%.
The matching figures for `CCN(CC)c1ccc(/C=C(\C#N)C(N)=S)cc1`: 8.86 and 93.7%.
Take `CC(=O)Oc1ccc2c(c1)O/C(=C\c1ccncc1)C2=O`: the fold increase amounted to 1.94 and the viability turned out to be 96.1%.
For `CCOC(=O)/C=C/CN(C(=O)OC(C)(C)C)S(=O)(=O)N1CC=CC1`, in that order: 1.33 and 95.6%.
For `N#C/C(=C/c1ccc(N2CCOCC2)o1)C(=O)NC1CCCCC1`, the fold increase is 2.08 and the viability is 93%.
For `Cc1ccc(C)c(OCc2nnc(SCC(=O)NCc3ccc4c(c3)OCO4)o2)c1`, in that order: 1.43 and 104%.
For `Oc1c(N=Nc2ccccc2)sc2ccccc12`, in that order: 1.43 and 88.4%.
The matching figures for `CCc1cc[n+](-c2nc3ccccc3nc2[N-]S(=O)(=O)c2ccc(Br)s2)cc1`: 1.68 and 97.7%.
Regarding `Cc1nn(-c2ccccn2)c2nc(-c3cccs3)cc(C(=O)NCc3ccco3)c12`, the fold increase was found to be 1.39.
In the case of `N#Cc1c(Cn2cncn2)nc(=O)n(-c2ccc(Cl)cc2)c1N`, the fold increase worked out at 1.43 and the viability stood at 94.1%.
Regarding `COc1cc(NC(=O)c2cccs2)c(C(=O)OCC(=O)NCc2ccccc2)cc1OC`, the fold increase was determined as 1.2.
